{
  "source": "PubChem BioAssay AID504832",
  "about": "(National Center for Advancing Translational Sciences (NCATS), 2011)",
  "note": "In all, about 310,000 compounds went through this assay and about 18,000 (5.8%) were called active. Inconclusive results, whose numbers are uncertain, are shown with a selection of clear calls. Calls follow the shape of the dose curve; as a rule, active = well fitted inhibition curve with a large enough effect; inconclusive = small, poorly fitted or top-dose-only effect, or another doubt; inactive = no such curve, though single readings can be large or run the other way. No potency is given beside an inconclusive call; the fits are too rough.",
  "data": [
    {"test": "Primary qHTS for delayed death inhibitors of the malarial parasite plastid, 48 hour incubation; also: potency is read from the fitted curve at half-maximal effect; tags tell the direction and shape of the fitted curve", "conditions": "P. falciparum luciferase growth in erythrocytes; series mostly up to 28.7 µM", "how_it_was_run": "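Read-out is firefly luciferase luminescence from an integrated reporter in P. falciparum, so falling signal marks reduced parasite growth. Infected erythrocytes were at 2% hematocrit and 0.1% parasitemia (final) in Albumax-supplemented RPMI 1640.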", "values": [
      {"compound": "CC1CCC/C=C/C(=O)c2c(O)cc(O)cc2CC(=O)O1", "note": "(configuration not stated)", "Potency": "inconclusive [inhibitor, partial curve, poor fit]"},
      {"compound": "CC1(C)Oc2ccc3ccc(=O)oc3c2/C(=C/N)C1=O", "Potency": "inactive"},
      {"compound": "Cc1nc2ccccc2c(=O)n1/N=C1\\C(=O)N(C)c2ccccc21", "Potency": "inconclusive [inhibitor, single point]"},
      {"compound": "CN(CC(=O)Nc1ccccc1Br)C(=O)C(Cc1ccccc1)NC(=O)c1ccccc1", "note": "(configuration not stated)", "Potency": "inconclusive [inhibitor, single point]"},
      {"compound": "Cc1ccc(-n2nc3c(N4CCC(C(=O)NCc5ccccc5C)CC4)nnc(C)c3c2C)cc1", "Potency": "inconclusive [inhibitor, single point]"},
      {"compound": "Cn1ccnc1C1CCCCN1Cc1nc(Cc2cccc(C(F)(F)F)c2)no1", "note": "(configuration not stated)", "Potency": "inconclusive [inhibitor, single point]"},
      {"compound": "O=C(Cn1c(=O)[nH]c2ccccc2c1=O)Nc1ccc2c(c1)OCCO2", "Potency": "inactive"},
      {"compound": "Cc1cccc(OCC(=O)NNC(=O)CCCCC(=O)NNC(=O)COc2cccc(C)c2)c1", "Potency": "inactive"},
      {"compound": "COc1cccc(C2CCCN2Cc2nc(-c3sccc3C)oc2C)c1", "note": "(configuration not stated)", "Potency": "inconclusive [inhibitor, single point]"},
      {"compound": "CCOc1ccccc1C(c1c(C)n(C)n(-c2ccccc2)c1=O)c1c(C)n(C)n(-c2ccccc2)c1=O", "Potency": "inconclusive [inhibitor, single point]"},
      {"compound": "CC(Cc1cccs1)N(Cc1ccc(Cl)cc1)C(=O)c1ccncc1", "note": "(configuration not stated)", "Potency": "inconclusive [inhibitor, single point]"},
      {"compound": "CC1CCN(C(=O)c2ccc3c(c2NCCO)C(=O)c2ccccc2C3=O)CC1", "Potency": "inconclusive [inhibitor, single point]"},
      {"compound": "CCN1CCN(c2ccc(S(=O)(=O)N3CCCCC3)cc2NC(=O)/C=C/c2ccc(F)cc2)CC1", "Potency": "active: 10.4 µM"},
      {"compound": "COc1ccccc1CNC(=O)C(=O)NCC1OCCCN1S(=O)(=O)c1cccs1", "note": "(configuration not stated)", "Potency": "inconclusive [inhibitor, single point]"},
      {"compound": "CC(=O)NC1(C(Cl)(Cl)Cl)Oc2ccccc2O1", "Potency": "inconclusive [inhibitor, partial curve, poor fit]"},
      {"compound": "N=c1sccn1CC(=O)Nc1cc(Cl)ccc1Oc1ccccc1", "Potency": "inconclusive [inhibitor, single point]"},
      {"compound": "O=C1N=C(N2CCCC2)S/C1=C\\c1cccc(Br)c1", "Potency": "inconclusive [inhibitor, single point]"},
      {"compound": "COc1ccc(C2NC(=O)Cc3cc(OC)c(OC)cc32)cc1OC", "note": "(configuration not stated)", "Potency": "inconclusive [inhibitor, single point]"},
      {"compound": "CC(=O)NC(CCS(C)(=O)=O)C(=O)Nc1cccc(C(C)=O)c1", "note": "(configuration not stated)", "Potency": "inactive"},
      {"compound": "CCC(=O)Nc1cccc(C2=NOC3(C2)C[C@@H](C(N)=O)N(C(=O)c2cc([N+](=O)[O-])cc([N+](=O)[O-])c2C)C3)c1", "note": "(some centres not stated)", "Potency": "inconclusive [inhibitor, full curve, poor fit]"},
      {"compound": "CC(=O)Nc1ccc(C2=NN(c3ccccc3)C(c3cccs3)C2)cc1", "note": "(configuration not stated)", "Potency": "inconclusive [inhibitor, single point]"},
      {"compound": "CCCC(=O)c1ccc(N2CCN(C(=O)c3ccccc3Br)CC2)c(F)c1", "Potency": "inconclusive [inhibitor, single point]"},
      {"compound": "OC(CCCN1CCCCC1)(c1ccccc1)c1ccccc1", "Potency": "inconclusive [inhibitor, partial curve, poor fit]"},
      {"compound": "Cc1ccccc1NC(=O)CN(C)S(=O)(=O)c1ccc2c(c1)n(C)c(=O)c(=O)n2C", "Potency": "inconclusive [inhibitor, single point]"},
      {"compound": "CCn1c2ccccc2c2nn(C)c(=N)nc21", "Potency": "inconclusive [inhibitor, partial curve]"},
      {"compound": "Cc1ccc(NC(=O)NCC(c2cccnc2)N2CCOCC2)cc1", "note": "(configuration not stated)", "Potency": "inconclusive [inhibitor, single point]"},
      {"compound": "Cc1ccccc1-n1nc2c(c1NC(=O)/C=C\\c1ccc3c(c1)OCO3)CSC2", "Potency": "inconclusive [inhibitor, partial curve, poor fit]"},
      {"compound": "CCN1CCN(C(=O)C2CCN(S(=O)(=O)c3cc(Cl)ccc3Cl)CC2)CC1", "Potency": "inactive"},
      {"compound": "CCOc1ccc(C(=O)N2CCc3ccccc32)cc1", "Potency": "inconclusive [inhibitor, single point]"},
      {"compound": "CC(C)(C)c1ccc(C(=O)N2CCN(C(=O)C3CCCCC3)CC2)cc1", "Potency": "inconclusive [inhibitor, partial curve]"},
      {"compound": "Cc1cccc(/C(N)=N/OC(=O)c2ccc(F)cc2)c1", "Potency": "inconclusive [inhibitor, single point]"},
      {"compound": "COc1ccc(NC(=O)CCNS(=O)(=O)c2ccc3c(c2)CC(C)N3C(C)=O)cc1", "note": "(configuration not stated)", "Potency": "inconclusive [inhibitor, partial curve, poor fit]"},
      {"compound": "Cc1nc2ccccc2n1CC(O)COc1ccc(Br)cc1", "note": "(configuration not stated)", "Potency": "inconclusive [inhibitor, single point]"},
      {"compound": "CCc1noc(C)c1C(=O)Nc1cc(C(F)(F)F)ccc1-n1cncn1", "Potency": "inconclusive [inhibitor, single point]"},
      {"compound": "S=c1[nH]nc(-c2cccnc2)n1/N=C/C=C/c1ccccc1", "Potency": "inactive"},
      {"compound": "CC1(c2ccc3ccccc3c2)NC(=O)N(CC(=O)N2CCCC(C(F)(F)F)C2)C1=O", "note": "(configuration not stated)", "Potency": "inactive"},
      {"compound": "Cc1ccc(N2C(=O)CC(N(CCc3ccccc3)C(=S)Nc3ccc(N(C)C)cc3)C2=O)cc1", "note": "(configuration not stated)", "Potency": "active: 11.7 µM"},
      {"compound": "COc1ccccc1Cn1c(SCC(=O)C(C)(C)C)nc2cc(C(=O)N3CCC4(CC3)OCCO4)ccc2c1=O", "Potency": "active: 5.86 µM"},
      {"compound": "O=C(CCl)N(Cc1ccccc1)c1ccccc1", "Potency": "active: 10.4 µM"},
      {"compound": "Cc1cc(C(F)(F)F)nc(SCCN2CCOCC2)c1C#N", "Potency": "inactive"},
      {"compound": "CCOC(=O)C1=C(CSc2nc(-c3ccccc3)ccc2C#N)OC(N)=C(C#N)C1c1ccc(OC)cc1", "note": "(configuration not stated)", "Potency": "inconclusive [inhibitor, single point]"},
      {"compound": "CCOc1nc2cnccc2n(CC(=O)Nc2c(F)c(F)cc(F)c2F)c1=O", "Potency": "inconclusive [inhibitor, partial curve, poor fit]"},
      {"compound": "CC1(CC(=O)N/N=C/c2cc(Br)c(O)cc2O)OCCO1", "Potency": "inconclusive [inhibitor, full curve, poor fit]"},
      {"compound": "O=S(=O)(NCCSc1ccccn1)c1ccc(Br)cc1", "Potency": "inactive"},
      {"compound": "COCCCN=C1NN=C(c2cc(C)n(Cc3ccccc3Cl)c2C)CS1", "Potency": "inconclusive [inhibitor, single point]"},
      {"compound": "Cc1ccc(-n2nnnc2SCC(=O)c2c(N)n(CC(C)C)c(=O)n(C)c2=O)cc1", "Potency": "inconclusive [inhibitor, full curve, poor fit]"},
      {"compound": "Cc1cc(O)ccc1N=Cc1c(C(F)(F)F)[nH][nH]c1=O", "Potency": "inconclusive [inhibitor, single point]"},
      {"compound": "CCOC(=O)c1c(-n2c(C)cc(C=C3C(=O)NC(=O)NC3=O)c2C)sc2c1CCCC2", "Potency": "inconclusive [inhibitor, single point]"},
      {"compound": "COc1cccc(NC(=S)N2CCC(NC(=O)C3CCCCC3)CC2)c1", "Potency": "inactive"},
      {"compound": "CC(C)Oc1ccc(S(=O)(=O)N2CCOCC2)cc1NC(=O)Cc1c(F)cccc1Cl", "Potency": "inconclusive [inhibitor, partial curve]"},
      {"compound": "COc1ccc(NC(=O)c2ccccc2-c2ccccc2)cc1", "Potency": "inactive"},
      {"compound": "CCc1cc(C(=O)OC)c(NC(=O)c2ccoc2C)s1", "Potency": "inconclusive [inhibitor, single point]"},
      {"compound": "Nc1ccc2c3c(cccc13)CC2", "Potency": "inconclusive [inhibitor, single point]"},
      {"compound": "Cc1ccc(-c2ccc(=O)n(CC(=O)Nc3cccc(C(=O)N4CCN(C)CC4)c3)n2)cc1", "Potency": "inconclusive [inhibitor, single point]"},
      {"compound": "C(=N\\N=C\\c1ccccn1)/c1ccccn1", "Potency": "active: 13.1 µM"},
      {"compound": "c1ccc(-c2csc(-c3cccnc3)n2)cc1", "Potency": "inactive"},
      {"compound": "O=C(CNC1CC1)Nc1cc(C(F)(F)F)ccc1Cl", "Potency": "active: 1.17 µM"},
      {"compound": "O=[N+]([O-])c1cccc(S(=O)(=O)Nc2nc3ccccc3nc2Nc2cccc(S(=O)(=O)N3CCCCC3)c2)c1", "Potency": "active: 14.7 µM"},
      {"compound": "C=CCCCN(Cc1ccccc1)S(=O)(=O)c1ccccc1Br", "Potency": "inconclusive [inhibitor, partial curve, poor fit]"},
      {"compound": "COc1cc(C(C[N+](=O)[O-])c2c(C)[nH]c3ccccc23)cc(OC)c1OC", "note": "(configuration not stated)", "Potency": "active: 13.1 µM"},
      {"compound": "Cc1cc(C)n(-c2c(C)[nH]c3ccccc23)n1", "Potency": "inconclusive [inhibitor, single point]"},
      {"compound": "COc1ccccc1NC(=O)c1cccc2c(Br)cccc12", "Potency": "inconclusive [inhibitor, single point]"},
      {"compound": "CCOC(=O)c1sc(NC(=S)NC(=O)c2ccccc2Cl)c(C(=O)OCC)c1C", "Potency": "inactive"},
      {"compound": "O=C(Nc1ccccc1)Nc1ccc(-n2ccc(C(F)(F)F)n2)cc1", "Potency": "inconclusive [inhibitor, full curve]"},
      {"compound": "CCCc1nc2ccccc2c(C(=O)OCc2nnc(-c3cc(OC)c(OC)c(OC)c3)o2)c1CC", "Potency": "active: 4.65 µM"},
      {"compound": "CC1CCCCC1NC(=O)CCNS(=O)(=O)c1ccc(Cl)cc1", "note": "(configuration not stated)", "Potency": "inconclusive [inhibitor, partial curve, poor fit]"},
      {"compound": "COc1cccc(CC2(CO)CCCN(Cc3cn[nH]c3-c3ccccc3)C2)c1", "note": "(configuration not stated)", "Potency": "inconclusive [inhibitor, single point]"}
    ]}
  ]
}
